# Results from publication PMC4336329 (PLoS ONE, 2015).
# Among all 310,000 compounds or so, about 14,000 (4.5%) showed an effect of 50% or more. Effects have a minus sign here. This is one part of the list.
# Molecular target: human ether-à-go-go-related gene (hERG) potassium channel (human, UniProt Q12809)
# Experiment: primary screen, population patch clamp on CHO cells stably expressing hERG
# 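Note: peak tail current of the secondary pulse compared with the same well before compound.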
# Sequence of human ether-à-go-go-related gene (hERG) potassium channel (Q12809 whole entry, looked up): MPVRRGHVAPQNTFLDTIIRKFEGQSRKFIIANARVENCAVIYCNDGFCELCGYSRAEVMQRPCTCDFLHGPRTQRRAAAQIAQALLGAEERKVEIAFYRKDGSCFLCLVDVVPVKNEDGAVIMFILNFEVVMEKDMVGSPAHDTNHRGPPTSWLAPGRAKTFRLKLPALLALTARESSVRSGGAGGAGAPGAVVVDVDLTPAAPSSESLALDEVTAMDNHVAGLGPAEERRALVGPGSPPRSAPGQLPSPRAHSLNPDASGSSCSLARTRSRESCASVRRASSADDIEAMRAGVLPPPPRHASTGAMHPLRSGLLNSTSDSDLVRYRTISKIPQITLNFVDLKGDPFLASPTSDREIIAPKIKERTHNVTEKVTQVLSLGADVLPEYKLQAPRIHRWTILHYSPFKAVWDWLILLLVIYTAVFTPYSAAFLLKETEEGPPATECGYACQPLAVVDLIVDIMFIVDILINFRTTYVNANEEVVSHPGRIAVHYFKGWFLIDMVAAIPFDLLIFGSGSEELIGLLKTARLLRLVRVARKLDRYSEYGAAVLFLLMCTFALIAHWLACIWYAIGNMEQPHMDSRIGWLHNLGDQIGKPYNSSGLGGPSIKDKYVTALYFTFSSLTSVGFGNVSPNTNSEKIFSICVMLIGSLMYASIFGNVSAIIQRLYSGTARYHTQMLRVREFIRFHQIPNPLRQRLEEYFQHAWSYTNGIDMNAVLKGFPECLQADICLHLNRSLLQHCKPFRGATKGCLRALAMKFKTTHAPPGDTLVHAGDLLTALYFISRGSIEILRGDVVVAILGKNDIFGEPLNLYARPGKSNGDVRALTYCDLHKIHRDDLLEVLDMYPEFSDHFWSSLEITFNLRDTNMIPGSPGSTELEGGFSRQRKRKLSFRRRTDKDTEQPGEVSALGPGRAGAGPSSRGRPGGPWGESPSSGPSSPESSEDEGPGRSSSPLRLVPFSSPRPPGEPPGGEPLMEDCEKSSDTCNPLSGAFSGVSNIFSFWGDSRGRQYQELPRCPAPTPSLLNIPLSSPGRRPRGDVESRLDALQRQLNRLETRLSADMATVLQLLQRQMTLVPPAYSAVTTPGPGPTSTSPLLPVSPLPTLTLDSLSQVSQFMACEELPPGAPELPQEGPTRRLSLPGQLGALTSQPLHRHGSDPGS
row,Compound,"hERG current change (%, negative = inhibition) at 10uM"
1,CC(C)N(Cc1nnc(-c2ccc(Cl)cc2)o1)C(=O)c1cc2ccccc2o1,-40.1%
2,Cc1ccnc(NS(=O)(=O)c2ccc(NC(=O)c3ccc4c(c3)OCCO4)cc2)n1,40.4%
3,COc1ccc(CCNC(=O)c2cccc3c2C(=O)N(C2CCCCC2)C3)cc1OC,-24.1%
4,CCOC(=O)N1CCN(C(=O)C(=O)Nc2sc3c(c2C(=O)O)CC(C)(C)OC3)CC1,21%
5,CC(C)NC(=O)c1onc(CSc2ccc(C(C)C)cc2)c1C(=O)O,23%
6,COc1ccccc1-c1nnc(NC(=O)c2ccc(S(=O)(=O)N3CCCC3)cc2)o1,-17.3%
7,S=C(NCC1CCCCC1)Nc1ccc(Oc2ccccc2)cc1,12.8%
8,O=C(CN1CCN(CC(=O)Nc2ccccc2Cc2ccccc2)CC1)Nc1ccccc1Cl,20%
9,O=C(CC1SC(N2CCCCC2)=NC1=O)Nc1cccc(C(=O)Nc2ncccc2O)c1 (stereo not drawn),11.7%
10,COc1ccccc1-c1c(C)nn2c(N3CCC(C)CC3)cc(C)nc12,2.78%
11,O=C(N[C@@H](Cc1ccccc1)C(=O)OCc1ccccc1)c1nc[nH]c1C(=O)NC1CC[NH2+]CC1.[Cl-],6.23%
12,COc1ccccc1N(CC(=O)NC1CCCCC1)S(=O)(=O)c1cccs1,-21.7%
13,Nc1ccc(C#Cc2ccc3oc4ccccc4c(=O)c3c2)cc1,12.2%
14,COc1ccc(C)cc1S(=O)(=O)N(C)CC(=O)NCc1ccncc1,10.6%
15,COc1ccc(S(=O)(=O)N2CCC(C(=O)NCc3ccncc3)CC2)cc1C,-5.06%
16,Cc1nn(C)cc1C(C(=O)NC1CCCCC1)N(Cc1ccc(F)cc1)C(=O)c1cnccn1 (stereo not drawn),6.46%
17,CCOC(=O)c1cnc2c(OC)cccc2c1N1CCN(c2ccc(OC)cc2)CC1,-47.1%
18,COc1ccc(C2NC(=O)NC3=C2CCc2ccccc23)cc1 (stereo not drawn),-22.8%
19,O=C1CSC(c2cn(-c3ccccc3)nc2-c2cccs2)N1Cc1ccccc1 (stereo not drawn),-1.38%
20,O=C(Cn1sc2ccccc2c1=O)N1CCN(C(=O)c2ccco2)CC1,-12.3%
21,Cc1nc(CN2CCN(C(=O)c3ccc(Br)cc3)CC2)cs1,-32.8%
22,COc1cc(C2C3=C(CC(C)(C)CC3=O)Nc3ccccc3N2C(C)=O)cc(OC)c1OC (stereo not drawn),3.82%
23,COC(=O)c1[nH]c2cc(C)ccc2c1NC(=O)CN1CCc2cc(OC)c(OC)cc2C1,-20.6%
24,CCN(C(=O)COC(=O)c1cn(C)c2ccccc12)c1ccc(F)cc1,-11.7%
25,C/C(Cl)=C/Cc1c(C)[nH]c2c(ccc3ccccc32)c1=O,19.2%
26,C=CCc1cc(Cl)ccc1OCCOCCN(C)C.O=C(O)C(=O)O,-51.5%
27,O=C(COc1ccc(Br)cc1)N1CCN(S(=O)(=O)/C=C/c2ccccc2)CC1,-49.6%

row,Compound,"hERG current change (%, negative = inhibition) at 10uM"
1,CN(Cc1ccccc1)/C(=N/O)c1cccc(Cl)c1,-0.00072%
2,CCOc1cc(/C=C2\COc3ccccc3C2=O)ccc1OCC(=O)N(C)C,-10.3%
3,Cn1nc(C(=O)Nc2ccccc2N2CCCC2)c2ccccc2c1=O,-0.947%
4,O=C(O)c1cc(S(=O)(=O)N2CC3CC3C2C(=O)O)c(Cl)cc1Cl (stereo not drawn),19.3%
5,O=C(CCC(=O)c1cccs1)Nc1ccccc1F,3.01%
6,C=CCN1C(=O)C(CC(=O)O)SC1=Nc1c(C)n(C)n(-c2ccccc2)c1=O (stereo not drawn),1.73%
7,CCOc1ccc(NS(=O)(=O)c2ccc(C(=O)NCC(c3ccco3)N(C)C)cc2)cc1 (stereo not drawn),-23.2%
8,O=C1N/C(=C/c2ccc(Br)cc2)C(O)=C1C=NCc1ccccc1,0.962%
9,S=c1[nH]nc(-c2cccnc2)n1/N=C/C=C/c1ccco1,6.56%
10,CCOc1cc(C(c2c(C)[nH][nH]c2=O)c2c(C)[nH][nH]c2=O)cc(Br)c1OC,10.3%
11,COc1cccc(CNS(=O)(=O)c2ccc(S(=O)(=O)NC3CC3)cc2)c1,14.2%
12,Oc1cc(Br)ccc1C=Nc1ccc(N2CCCCC2)cc1,8.42%
13,O=C(OCC(=O)N1CCN(S(=O)(=O)c2ccc(Cl)cc2)CC1)C1CC1,0.609%
14,Oc1ccccc1/C=N/N1CCN(c2ccccn2)CC1,-4.41%
15,Cc1nc2ccc(NC(=O)N3CCCCC3)cc2nc1C,12.8%
16,Cc1sc2ncnc(N3CCN(C(=O)c4ccco4)CC3)c2c1C,-61.8%
17,COc1ccc(C(=O)N2CCN(c3ccc(C)cc3)CC2)cc1OC,-21.8%
18,c1ccc(C(c2ccccc2)N2CCN(c3ccc4ccccc4n3)CC2)cc1,-3.18%
19,Cc1cccc(C)c1OCC(=O)NNC(=O)CCNC(=O)c1ccco1,21.3%
20,O=C1c2ccccc2C(O)N1Cc1ccccc1Cl (stereo not drawn),-0.865%
21,S=C=Nc1ccccn1,-16.7%
22,COc1ccc(C(=O)NC(C(=O)NCC2CCCO2)C(C)C)cc1 (stereo not drawn),12.5%
23,COc1ccc(CN2CCN(CCc3ccccc3)C(CCO)C2)cc1Cn1cncn1 (stereo not drawn),-35.8%
24,Cc1cc(C)n(/C(=C\N(C)C)C(=O)c2cccc([N+](=O)[O-])c2)n1,14.4%
25,CCN(c1ccccc1)S(=O)(=O)c1ccc(Cl)c(NC(=O)CSc2nncn2C)c1,-15.7%
26,COc1ccc2[nH]c3c(=O)n(CCN4CCOCC4)cnc3c2c1,-2.38%
27,CC(C)=CCOc1c2ccoc2cc2oc(=O)ccc12,6.33%
